Source: PMC6172828
No constants are given. Whether binding was seen depends on the method and setting. In cells and extracts the contact can be indirect. Some results given as binding are weak or reduced against the parent protein; the word gives no strength. Tags and fused reporters may be left off the sequences shown.

Sequences of proteins named here, by UniProt entry; tags and fusion partners are left off.
UniProt Q9Z148: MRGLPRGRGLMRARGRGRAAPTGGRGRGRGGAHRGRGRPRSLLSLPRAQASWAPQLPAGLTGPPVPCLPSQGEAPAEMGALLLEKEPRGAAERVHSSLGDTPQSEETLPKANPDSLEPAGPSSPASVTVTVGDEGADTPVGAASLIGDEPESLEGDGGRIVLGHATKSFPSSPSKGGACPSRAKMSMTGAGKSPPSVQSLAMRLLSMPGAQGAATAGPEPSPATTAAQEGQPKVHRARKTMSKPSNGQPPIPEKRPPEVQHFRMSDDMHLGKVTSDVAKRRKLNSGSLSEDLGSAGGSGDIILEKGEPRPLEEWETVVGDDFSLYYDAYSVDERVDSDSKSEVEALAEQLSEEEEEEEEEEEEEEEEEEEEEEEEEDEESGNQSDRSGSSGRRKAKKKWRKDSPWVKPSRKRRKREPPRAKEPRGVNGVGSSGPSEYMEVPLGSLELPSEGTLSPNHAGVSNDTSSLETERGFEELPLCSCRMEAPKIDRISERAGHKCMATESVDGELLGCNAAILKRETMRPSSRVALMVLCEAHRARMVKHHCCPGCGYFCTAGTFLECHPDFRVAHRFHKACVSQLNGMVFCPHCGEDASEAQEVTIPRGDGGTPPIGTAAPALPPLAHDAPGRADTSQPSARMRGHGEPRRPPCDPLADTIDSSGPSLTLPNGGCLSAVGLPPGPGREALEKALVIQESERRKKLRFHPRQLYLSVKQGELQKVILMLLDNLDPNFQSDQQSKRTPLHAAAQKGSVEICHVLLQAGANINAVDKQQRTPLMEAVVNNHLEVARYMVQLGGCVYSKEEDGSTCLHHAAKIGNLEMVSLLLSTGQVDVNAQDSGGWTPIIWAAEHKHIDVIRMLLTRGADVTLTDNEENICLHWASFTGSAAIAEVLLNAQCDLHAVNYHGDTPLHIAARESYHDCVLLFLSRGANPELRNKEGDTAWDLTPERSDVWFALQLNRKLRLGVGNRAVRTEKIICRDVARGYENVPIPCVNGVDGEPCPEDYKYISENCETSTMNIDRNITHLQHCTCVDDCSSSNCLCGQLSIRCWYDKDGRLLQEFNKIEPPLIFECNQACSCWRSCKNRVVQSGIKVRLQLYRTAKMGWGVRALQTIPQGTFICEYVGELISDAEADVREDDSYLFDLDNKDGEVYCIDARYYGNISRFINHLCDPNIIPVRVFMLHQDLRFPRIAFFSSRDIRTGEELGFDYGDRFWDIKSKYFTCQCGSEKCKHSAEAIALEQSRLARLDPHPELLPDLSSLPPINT

T1: 3xFLAG-ATF7IP K16R mutant (stably expressed in Atf7ip KO mESCs) (mouse) (UniProt Q7TT18)
T1 sequence: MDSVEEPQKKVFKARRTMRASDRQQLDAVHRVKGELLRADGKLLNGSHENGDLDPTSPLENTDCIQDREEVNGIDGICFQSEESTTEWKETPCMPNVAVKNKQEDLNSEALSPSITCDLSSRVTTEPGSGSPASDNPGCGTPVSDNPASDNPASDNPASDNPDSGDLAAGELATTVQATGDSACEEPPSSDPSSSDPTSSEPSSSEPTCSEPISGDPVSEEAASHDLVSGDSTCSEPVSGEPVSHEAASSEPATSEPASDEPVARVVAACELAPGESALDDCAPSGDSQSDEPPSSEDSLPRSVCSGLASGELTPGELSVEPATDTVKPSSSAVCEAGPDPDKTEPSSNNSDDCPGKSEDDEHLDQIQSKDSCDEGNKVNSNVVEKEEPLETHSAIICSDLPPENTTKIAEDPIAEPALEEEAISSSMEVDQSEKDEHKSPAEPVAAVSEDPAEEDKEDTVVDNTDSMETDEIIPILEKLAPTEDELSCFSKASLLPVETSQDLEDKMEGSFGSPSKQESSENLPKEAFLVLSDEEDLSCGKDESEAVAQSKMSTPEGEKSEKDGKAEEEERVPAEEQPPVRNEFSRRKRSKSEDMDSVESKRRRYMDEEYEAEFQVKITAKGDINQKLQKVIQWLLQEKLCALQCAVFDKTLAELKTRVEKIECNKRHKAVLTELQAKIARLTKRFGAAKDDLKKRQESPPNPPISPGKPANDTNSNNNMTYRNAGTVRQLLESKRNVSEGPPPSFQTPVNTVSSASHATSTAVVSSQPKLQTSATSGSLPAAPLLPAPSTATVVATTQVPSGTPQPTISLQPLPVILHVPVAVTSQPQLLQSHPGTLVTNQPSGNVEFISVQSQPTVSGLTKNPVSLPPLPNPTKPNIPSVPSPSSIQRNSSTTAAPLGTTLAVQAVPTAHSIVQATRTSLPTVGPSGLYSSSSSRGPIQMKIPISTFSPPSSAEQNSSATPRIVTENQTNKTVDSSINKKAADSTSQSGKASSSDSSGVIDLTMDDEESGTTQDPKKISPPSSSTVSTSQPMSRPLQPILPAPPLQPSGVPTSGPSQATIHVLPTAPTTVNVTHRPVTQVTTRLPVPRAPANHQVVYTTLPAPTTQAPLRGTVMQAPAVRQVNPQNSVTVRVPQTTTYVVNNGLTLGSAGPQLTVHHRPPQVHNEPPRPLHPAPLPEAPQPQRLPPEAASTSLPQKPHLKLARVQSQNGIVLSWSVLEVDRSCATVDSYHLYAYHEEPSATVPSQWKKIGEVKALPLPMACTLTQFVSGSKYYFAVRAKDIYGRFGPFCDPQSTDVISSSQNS

T2: V5-MPP8 W80A mutant (expressed in mESCs) (mouse) (UniProt Q3TYA6)
T2 sequence: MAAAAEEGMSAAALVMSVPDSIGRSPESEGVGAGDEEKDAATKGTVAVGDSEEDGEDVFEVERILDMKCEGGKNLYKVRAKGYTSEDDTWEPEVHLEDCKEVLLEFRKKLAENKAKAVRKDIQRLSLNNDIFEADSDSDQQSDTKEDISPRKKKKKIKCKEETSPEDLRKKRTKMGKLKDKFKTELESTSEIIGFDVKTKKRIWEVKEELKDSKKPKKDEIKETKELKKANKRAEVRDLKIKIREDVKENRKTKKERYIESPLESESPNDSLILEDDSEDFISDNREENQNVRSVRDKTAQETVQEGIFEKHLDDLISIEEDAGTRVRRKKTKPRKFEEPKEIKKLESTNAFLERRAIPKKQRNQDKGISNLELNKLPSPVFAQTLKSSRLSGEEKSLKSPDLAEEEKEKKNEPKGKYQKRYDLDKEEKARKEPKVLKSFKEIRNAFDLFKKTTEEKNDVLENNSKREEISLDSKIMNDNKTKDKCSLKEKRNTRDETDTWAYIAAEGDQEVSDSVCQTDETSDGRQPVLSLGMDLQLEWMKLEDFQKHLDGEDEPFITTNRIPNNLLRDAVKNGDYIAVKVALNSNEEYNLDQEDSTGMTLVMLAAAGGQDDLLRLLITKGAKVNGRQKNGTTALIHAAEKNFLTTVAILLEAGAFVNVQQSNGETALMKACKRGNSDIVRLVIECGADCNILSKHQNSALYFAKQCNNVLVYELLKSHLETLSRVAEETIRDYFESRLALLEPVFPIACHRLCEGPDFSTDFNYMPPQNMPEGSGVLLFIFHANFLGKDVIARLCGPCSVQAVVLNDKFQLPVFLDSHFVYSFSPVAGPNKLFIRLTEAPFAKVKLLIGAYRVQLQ

T3: V5-MPP8 WT (expressed in mESCs) (mouse) (UniProt Q3TYA6)
T3 sequence: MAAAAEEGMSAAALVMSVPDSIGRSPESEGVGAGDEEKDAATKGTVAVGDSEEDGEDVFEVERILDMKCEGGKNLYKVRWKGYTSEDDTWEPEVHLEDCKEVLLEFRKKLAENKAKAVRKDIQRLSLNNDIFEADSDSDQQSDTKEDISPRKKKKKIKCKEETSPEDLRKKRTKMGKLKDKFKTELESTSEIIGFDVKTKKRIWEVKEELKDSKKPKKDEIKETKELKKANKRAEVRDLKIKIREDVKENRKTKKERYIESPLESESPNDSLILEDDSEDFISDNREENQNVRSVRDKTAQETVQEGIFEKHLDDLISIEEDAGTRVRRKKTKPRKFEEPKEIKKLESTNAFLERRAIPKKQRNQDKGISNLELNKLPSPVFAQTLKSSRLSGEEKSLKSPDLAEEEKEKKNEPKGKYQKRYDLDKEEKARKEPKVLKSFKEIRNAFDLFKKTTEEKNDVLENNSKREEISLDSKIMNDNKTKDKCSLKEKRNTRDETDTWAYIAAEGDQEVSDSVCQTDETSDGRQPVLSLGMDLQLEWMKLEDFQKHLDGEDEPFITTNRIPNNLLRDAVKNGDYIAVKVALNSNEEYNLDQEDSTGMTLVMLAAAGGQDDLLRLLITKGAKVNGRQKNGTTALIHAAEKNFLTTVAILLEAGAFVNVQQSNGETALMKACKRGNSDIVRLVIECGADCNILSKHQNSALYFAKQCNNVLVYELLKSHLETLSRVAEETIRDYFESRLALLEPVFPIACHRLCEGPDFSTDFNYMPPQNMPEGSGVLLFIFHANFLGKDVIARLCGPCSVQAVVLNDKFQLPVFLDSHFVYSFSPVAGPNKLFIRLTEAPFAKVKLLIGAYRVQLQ


Tests used:
[1] = target: T1, 3xFLAG-ATF7IP K16R mutant (stably expressed in Atf7ip KO mESCs) (mouse); assay: co-IP; Atf7ip KO mESCs rescued with 3xFLAG-ATF7IP WT, K16R or Δ(1–16); anti-FLAG M2 beads; endogenous partners detected by western blot
[2] = target: T2, V5-MPP8 W80A mutant (expressed in mESCs) (mouse); assay: co-IP; WT mESCs expressing V5-MPP8 WT or W80A; anti-V5 antibody; endogenous ATF7IP detected by western blot
[3] = target: T3, V5-MPP8 WT (expressed in mESCs) (mouse); assay: as above

Molecule | binding [1] | binding [2] | binding [3]
G9a (endogenous in mESCs) (from UniProt Q9Z148 1-1263) (enzyme) | binds | – | –
ATF7IP, endogenous in WT mESCs (protein, UniProt Q7TT18 1-1306, tri-methylated lysine at K16 (shown on 3xFLAG-ATF7IP in WT mESCs, ~ 92%)) MDSVEEPQKKVFKARKTMRASDRQQLDAVHRVKGELLRADGKLLNGSHENGDLDPTSPLENTDCIQDREEVNGIDGICFQSEESTTEWKETPCMPNVAVKNKQEDLNSEALSPSITCDLSSRVTTEPGSGSPASDNPGCGTPVSDNPASDNPASDNPASDNPDSGDLAAGELATTVQATGDSACEEPPSSDPSSSDPTSSEPSSSEPTCSEPISGDPVSEEAASHDLVSGDSTCSEPVSGEPVSHEAASSEPATSEPASDEPVARVVAACELAPGESALDDCAPSGDSQSDEPPSSEDSLPRSVCSGLASGELTPGELSVEPATDTVKPSSSAVCEAGPDPDKTEPSSNNSDDCPGKSEDDEHLDQIQSKDSCDEGNKVNSNVVEKEEPLETHSAIICSDLPPENTTKIAEDPIAEPALEEEAISSSMEVDQSEKDEHKSPAEPVAAVSEDPAEEDKEDTVVDNTDSMETDEIIPILEKLAPTEDELSCFSKASLLPVETSQDLEDKMEGSFGSPSKQESSENLPKEAFLVLSDEEDLSCGKDESEAVAQSKMSTPEGEKSEKDGKAEEEERVPAEEQPPVRNEFSRRKRSKSEDMDSVESKRRRYMDEEYEAEFQVKITAKGDINQKLQKVIQWLLQEKLCALQCAVFDKTLAELKTRVEKIECNKRHKAVLTELQAKIARLTKRFGAAKDDLKKRQESPPNPPISPGKPANDTNSNNNMTYRNAGTVRQLLESKRNVSEGPPPSFQTPVNTVSSASHATSTAVVSSQPKLQTSATSGSLPAAPLLPAPSTATVVATTQVPSGTPQPTISLQPLPVILHVPVAVTSQPQLLQSHPGTLVTNQPSGNVEFISVQSQPTVSGLTKNPVSLPPLPNPTKPNIPSVPSPSSIQRNSSTTAAPLGTTLAVQAVPTAHSIVQATRTSLPTVGPSGLYSSSSSRGPIQMKIPISTFSPPSSAEQNSSATPRIVTENQTNKTVDSSINKKAADSTSQSGKASSSDSSGVIDLTMDDEESGTTQDPKKISPPSSSTVSTSQPMSRPLQPILPAPPLQPSGVPTSGPSQATIHVLPTAPTTVNVTHRPVTQVTTRLPVPRAPANHQVVYTTLPAPTTQAPLRGTVMQAPAVRQVNPQNSVTVRVPQTTTYVVNNGLTLGSAGPQLTVHHRPPQVHNEPPRPLHPAPLPEAPQPQRLPPEAASTSLPQKPHLKLARVQSQNGIVLSWSVLEVDRSCATVDSYHLYAYHEEPSATVPSQWKKIGEVKALPLPMACTLTQFVSGSKYYFAVRAKDIYGRFGPFCDPQSTDVISSSQNS | – | no binding | binds
